Measurements reported in paper PMC4336329 (PLoS ONE, 2015).
In all, about 310,000 compounds went through this assay and about 14,000 (4.5%) showed an effect of 50% or more. Effects have a minus sign here. The list shows a part of the results.

Molecular target: human ether-à-go-go-related gene (hERG) potassium channel (human, UniProt Q12809)
Assay: primary screen, population patch clamp on CHO cells stably expressing hERG
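Further: peak tail current of the secondary pulse compared with the same well before compound.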

Sequence of human ether-à-go-go-related gene (hERG) potassium channel (Q12809 whole entry, looked up): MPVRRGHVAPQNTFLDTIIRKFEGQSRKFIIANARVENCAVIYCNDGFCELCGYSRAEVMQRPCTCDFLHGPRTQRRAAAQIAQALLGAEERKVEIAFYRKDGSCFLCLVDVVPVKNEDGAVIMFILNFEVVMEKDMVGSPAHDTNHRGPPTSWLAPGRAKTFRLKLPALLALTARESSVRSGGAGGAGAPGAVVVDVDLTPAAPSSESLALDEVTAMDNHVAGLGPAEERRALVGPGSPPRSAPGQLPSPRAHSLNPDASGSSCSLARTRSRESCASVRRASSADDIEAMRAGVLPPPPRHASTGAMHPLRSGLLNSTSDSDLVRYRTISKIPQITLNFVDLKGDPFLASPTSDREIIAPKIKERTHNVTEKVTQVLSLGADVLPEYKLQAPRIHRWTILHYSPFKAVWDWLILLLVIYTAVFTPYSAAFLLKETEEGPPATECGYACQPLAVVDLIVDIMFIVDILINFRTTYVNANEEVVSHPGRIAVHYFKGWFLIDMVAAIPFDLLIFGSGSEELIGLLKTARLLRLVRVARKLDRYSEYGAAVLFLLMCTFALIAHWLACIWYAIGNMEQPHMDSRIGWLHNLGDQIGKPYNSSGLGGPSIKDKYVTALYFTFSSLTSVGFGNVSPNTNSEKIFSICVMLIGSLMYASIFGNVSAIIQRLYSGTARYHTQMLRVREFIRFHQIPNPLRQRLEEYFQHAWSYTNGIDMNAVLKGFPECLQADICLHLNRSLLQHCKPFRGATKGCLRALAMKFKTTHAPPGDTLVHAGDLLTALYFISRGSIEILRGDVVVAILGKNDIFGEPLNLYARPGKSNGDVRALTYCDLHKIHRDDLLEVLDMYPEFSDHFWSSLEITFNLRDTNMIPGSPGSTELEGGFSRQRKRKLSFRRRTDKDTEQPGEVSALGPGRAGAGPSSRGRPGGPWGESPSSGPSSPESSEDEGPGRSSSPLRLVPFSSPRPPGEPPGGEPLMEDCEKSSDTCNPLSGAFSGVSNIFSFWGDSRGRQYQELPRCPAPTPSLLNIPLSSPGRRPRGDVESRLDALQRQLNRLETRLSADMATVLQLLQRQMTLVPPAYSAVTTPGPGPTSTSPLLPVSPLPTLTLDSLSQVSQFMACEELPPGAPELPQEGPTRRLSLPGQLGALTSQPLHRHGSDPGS

| SMILES | hERG current change (%, negative = inhibition) at 10uM [%] |
| --- | --- |
| O=C1c2ccccc2S(=O)(=O)N1Cc1cccc(S(=O)(=O)N2CCOCC2)c1 | -41.4 |
| CCC(=O)Nc1nnc(SCC(=O)NC2CCCC2)s1 | -1.06 |
| CCCCOc1ccc(C(=O)NCC(=O)NCCOc2ccccc2OC)cc1 | -10.2 |
| COCC(=O)Nc1ccc(N(C)C)cc1 | 3.03 |
| CCOc1ccccc1NC(=O)CN1C(=O)COc2ccc(C)cc21 | 11 |
| COc1ccc(CCNC(=O)C(=O)NCC2OCCN2S(=O)(=O)c2ccc(Br)cc2)cc1OC (centres unmarked) | -33.8 |
| O=C(CCc1ccccc1)N=C1SC2CS(=O)(=O)CC2N1c1ccccc1F (centres unmarked) | 10.5 |
| O=S(=O)([O-])c1cc(O)ccc1O.[K+] | 3.7 |
| CCCCn1cnc2c(sc3nc4c(cc32)CSC(C)(C)C4)c1=O | 6.96 |
| COC(=O)c1sccc1NC(=S)N(C)C1CCCCC1 | -8.5 |
| O=C(CC1C(=O)NCCN1Cc1ccoc1)NCc1cccc(OC(F)(F)F)c1 (centres unmarked) | 1.19 |
| COc1ccc(C(=O)N2CCN(C)C(=O)[C@@H]2C)cc1OC1CCN(C(C)=O)CC1 | 12.6 |
| CCC(=O)N/C(=N/c1nc(C)cc(C)n1)Nc1ccc(OC)cc1 | 4.3 |
| COc1ccc(CCNC(=O)c2cccc(NC(=O)CC3SC(N4CCCCC4)=NC3=O)c2)cc1OC (centres unmarked) | 11.7 |
| O=c1cc(N2CCc3ccccc3C2)[nH]c(=O)n1-c1ccccc1Cl | 2.99 |
| CCn1c(CCNC(=O)c2cccs2)nnc1SCC(=O)Nc1cccc(Cl)c1 | -64.5 |
| CCCN1CN(Cc2ccccc2)CNC1=S | 15.9 |
| Cc1cc(NCCCCO)n2c(nc3ccccc32)c1C#N | -18.6 |
| CC(=O)c1cc(O)c2ccccc2c1O | -2.58 |

| SMILES | hERG current change (%, negative = inhibition) at 10uM [%] |
| --- | --- |
| CCCNC(=O)COC(=O)c1ccc(OCC(=O)Nc2ccccc2OC)c(OC)c1 | 9.81 |
| CC(C)(C)c1cc(C(=S)N2CCN(CCO)CC2)cc(C(C)(C)C)c1O | -26.6 |
| CCc1ccccc1NC1=NCC(=O)N1Cc1ccc(OC)cc1.Cl | -10 |
| COc1ccccc1NC(=O)C(C)NS(=O)(=O)c1ccccc1 (centres unmarked) | -8.34 |
| COc1ccc(C2(c3ccc(OC)cc3)NC(=O)N(CC(=O)Nc3ccccc3)C2=O)cc1 | 28.6 |
| Cc1ccc(Nc2ncnc3sc(C)c(C)c23)cc1 | 3.98 |
| O=C(NC1CCCC1)c1noc2c1CCCCC2 | 9.09 |
| O=C(O)c1ccc2c(=O)n3c(nc2c1)/C(=C/c1cccc(Cl)c1Cl)CC3 | 14.1 |
| O=C(Nc1ccc2c(c1)OCO2)c1ccc(COc2ccc3c(c2)CCC3)o1 | 5.22 |
| C/C(=N/NC(=O)c1cnccn1)c1cccs1 | -0.105 |
| Cc1noc(C)c1C(=O)Nc1ccccc1C(=O)NCCc1ccccc1 | 8.93 |
| O=C(COc1ccc(Cl)cc1)Nc1nc(-c2ccc(S(=O)(=O)N3CCOCC3)cc2)cs1 | 7.29 |
| Cc1ccc(C)c(OCCC(=O)OCC(=O)c2ccc3c(c2)NC(=O)CO3)c1 | -3.46 |
| CC(=O)c1c(C)[nH]c(C(=O)OCC(=O)N2c3ccccc3NC(=O)C2(C)C)c1C | 4.95 |
| C/C(=N\O)c1cc(Cl)cc(Cl)c1O | -11 |
| O=C(CN1CCN(c2ccccc2)CC1)N1CCc2ccccc21 | -18.2 |
| COc1ccc(/C=N\Nc2ccccc2[N+](=O)[O-])c(C(=O)O)c1OC | 13.5 |
| Nc1c(Cl)cc(Cl)cc1C(=O)OCC(=O)NC1CC1 | -16.6 |
| Cc1cc(=O)oc2c3c(cc(OCC(=O)NC(Cc4ccc(Cl)cc4)C(=O)O)c12)OC(C)(C)CC3 (centres unmarked) | 15.7 |

| SMILES | hERG current change (%, negative = inhibition) at 10uM [%] |
| --- | --- |
| CCOC(=O)c1ccc(N/C(=N\S(=O)(=O)c2ccc(F)cc2F)c2ccccc2)cc1 | -2.73 |
| O=C(O)/C=C/c1cn(Cc2ccccc2)nc1-c1ccc(Cl)cc1 | 21.7 |
| O=C(NCCN1CCOCC1)C(=O)NCC1OCCN1S(=O)(=O)c1ccc(F)cc1 (centres unmarked) | 7.19 |
| CCOC(=O)c1ccc(-n2c(C)ccc2C)cc1 | 6.3 |
| COCCNC(=S)N(CCO)Cc1cc2cc3c(cc2[nH]c1=O)OCCO3 | 5.51 |
| CCOc1ccc(NC(=O)C2CCCN2C(=O)OCc2ccccc2)cc1 (centres unmarked) | -19.9 |
| CCN(CC)C(C(=O)NC1CCCCC1)c1ccc(C)cc1 (centres unmarked) | -0.937 |
| COc1ccc(S(=O)(=O)Cc2ccc(C(=O)N3CCN(c4cccc(C)c4C)CC3)o2)cc1 | -30.6 |
| CC1CN(C(=O)COC(=O)c2cc(=O)c3ccccc3o2)CC(C)O1 (centres unmarked) | 21.3 |
| Cc1ccc(-n2nc3cc(C)c(NC(=S)NC(=O)/C=C/c4ccco4)cc3n2)cc1 | 19.3 |
| c1ccc2c(c1)OCCOCCOCCOCCOCCOc1ccccc1OCCOCCOCCO2 | -59.2 |
| COc1ccnc(Oc2ccc(F)cc2)c1C(=O)N/C=N/OCc1cccc(F)c1 | -26.1 |
| Cc1cc(NC(=O)c2ccc(C#N)cc2)n(-c2ccccn2)n1 | -2.63 |
| CSc1cccc(N2CC(C(=O)NCCC3=CCCCC3)CC2=O)c1 (centres unmarked) | 14.1 |
| Cc1ccc(-c2nnc(C)c(N3CC(C)OC(C)C3)n2)cc1 (centres unmarked) | -3.31 |
| C[C@]12CCC(=O)C=C1CC[C@@H]1[C@@H]2CC[C@@]2(C)[C@H]1CC[C@@]21CCC(=O)O1 | -18.4 |
| CCN(CC)c1ccc(NC(=O)CSc2nc3ccccc3c(=O)[nH]2)cc1 | 2.45 |
| COC(=O)c1sc(S(=O)(=O)N2CC[NH+](CCO)CC2)c(C(=O)OC)c1C.[Cl-] | 7.93 |
